These are yes or no findings as the source states them, for the method shown. In cells and extracts the contact can be indirect. Some results given as binding are weak or reduced against the parent protein; the word gives no strength. For some assays here: Tags and fused reporters may be left off the sequences shown.

Protein sequences, listed by entry. Tags and fused reporters are not part of them. Residues count along the entry.
UniProt Q60943, residues 32-864: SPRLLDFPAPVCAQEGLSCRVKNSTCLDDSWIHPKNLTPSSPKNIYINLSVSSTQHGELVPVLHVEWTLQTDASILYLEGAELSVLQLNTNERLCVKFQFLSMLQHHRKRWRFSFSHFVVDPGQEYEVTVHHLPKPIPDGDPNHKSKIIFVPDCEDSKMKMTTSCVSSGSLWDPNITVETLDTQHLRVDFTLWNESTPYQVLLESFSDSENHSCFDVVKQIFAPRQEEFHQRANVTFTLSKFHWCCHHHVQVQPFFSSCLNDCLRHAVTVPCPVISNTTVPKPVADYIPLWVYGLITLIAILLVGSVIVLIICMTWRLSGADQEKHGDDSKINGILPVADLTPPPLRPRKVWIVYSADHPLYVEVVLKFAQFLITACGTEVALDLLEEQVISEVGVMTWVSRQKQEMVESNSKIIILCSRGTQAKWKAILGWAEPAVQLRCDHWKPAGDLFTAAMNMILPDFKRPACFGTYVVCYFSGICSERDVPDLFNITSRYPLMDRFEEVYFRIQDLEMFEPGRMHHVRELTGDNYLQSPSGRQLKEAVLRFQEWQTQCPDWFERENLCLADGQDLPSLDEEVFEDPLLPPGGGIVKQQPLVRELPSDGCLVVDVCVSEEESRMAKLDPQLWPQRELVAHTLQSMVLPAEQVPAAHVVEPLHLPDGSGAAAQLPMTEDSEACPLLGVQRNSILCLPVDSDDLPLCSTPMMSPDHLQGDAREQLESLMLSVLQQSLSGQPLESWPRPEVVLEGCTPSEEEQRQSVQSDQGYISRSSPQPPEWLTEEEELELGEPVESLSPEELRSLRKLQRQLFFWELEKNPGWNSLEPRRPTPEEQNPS
UniProt Q16552, residues 24-155: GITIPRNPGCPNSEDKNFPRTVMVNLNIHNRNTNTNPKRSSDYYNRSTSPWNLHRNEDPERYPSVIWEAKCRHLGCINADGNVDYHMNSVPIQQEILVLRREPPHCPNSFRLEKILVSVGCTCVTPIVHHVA
UniProt Q8CJ61: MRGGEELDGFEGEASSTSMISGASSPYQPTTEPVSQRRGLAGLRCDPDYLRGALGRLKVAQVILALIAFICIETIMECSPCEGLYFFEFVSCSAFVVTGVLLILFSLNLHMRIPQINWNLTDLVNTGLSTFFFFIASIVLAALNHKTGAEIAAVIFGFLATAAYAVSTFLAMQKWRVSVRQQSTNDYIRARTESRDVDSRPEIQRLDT
UniProt O43734: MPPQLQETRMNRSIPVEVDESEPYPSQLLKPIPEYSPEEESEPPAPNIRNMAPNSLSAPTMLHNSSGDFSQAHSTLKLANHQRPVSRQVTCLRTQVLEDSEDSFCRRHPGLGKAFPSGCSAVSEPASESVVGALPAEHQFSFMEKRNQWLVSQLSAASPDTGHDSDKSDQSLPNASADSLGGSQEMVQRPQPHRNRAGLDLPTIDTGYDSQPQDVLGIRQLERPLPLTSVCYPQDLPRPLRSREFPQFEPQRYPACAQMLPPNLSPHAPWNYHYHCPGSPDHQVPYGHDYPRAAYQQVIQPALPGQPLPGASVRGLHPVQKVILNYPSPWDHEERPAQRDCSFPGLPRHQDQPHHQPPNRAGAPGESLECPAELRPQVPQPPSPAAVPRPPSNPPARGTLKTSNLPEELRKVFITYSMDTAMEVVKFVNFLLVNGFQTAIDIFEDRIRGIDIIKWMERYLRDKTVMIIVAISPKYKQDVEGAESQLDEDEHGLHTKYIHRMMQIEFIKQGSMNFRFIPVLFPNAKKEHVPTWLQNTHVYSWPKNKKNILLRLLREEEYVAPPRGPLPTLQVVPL

Assay [1] has as its target T1, SF-IL-17RC in Drosophila S2 cells (mouse) (UniProt Q8K4C2).
T1 sequence: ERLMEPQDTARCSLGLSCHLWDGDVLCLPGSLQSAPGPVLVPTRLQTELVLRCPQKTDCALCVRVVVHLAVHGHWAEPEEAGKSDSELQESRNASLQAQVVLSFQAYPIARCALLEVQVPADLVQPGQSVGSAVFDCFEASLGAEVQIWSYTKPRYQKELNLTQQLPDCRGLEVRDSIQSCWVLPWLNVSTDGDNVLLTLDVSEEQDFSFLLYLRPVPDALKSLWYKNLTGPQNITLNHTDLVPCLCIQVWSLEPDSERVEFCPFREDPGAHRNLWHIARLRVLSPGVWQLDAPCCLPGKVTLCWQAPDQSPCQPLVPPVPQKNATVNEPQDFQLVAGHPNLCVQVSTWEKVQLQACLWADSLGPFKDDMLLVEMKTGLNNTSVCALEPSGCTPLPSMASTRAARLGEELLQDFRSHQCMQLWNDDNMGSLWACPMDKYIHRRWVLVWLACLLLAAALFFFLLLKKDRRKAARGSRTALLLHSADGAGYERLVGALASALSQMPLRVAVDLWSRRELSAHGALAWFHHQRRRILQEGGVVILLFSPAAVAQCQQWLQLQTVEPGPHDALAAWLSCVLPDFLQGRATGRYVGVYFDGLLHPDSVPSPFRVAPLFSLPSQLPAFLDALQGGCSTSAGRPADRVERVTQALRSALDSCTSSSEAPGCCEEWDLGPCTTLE
Kind of assay: co-IP; anti-FLAG M2 agarose IP from lysates of Drosophila S2 cells stably transfected with SF-IL-17RA or SF-IL-17RC together with Myc-CMTM4, expression induced with 500 µM CuSO4, immunoblot.

The target in assay [2] is SF-IL-17RA in Drosophila S2 cells (mouse) (UniProt Q60943). The description is as above.
Assay [3] deals with Strep-Flag-tagged human IL-17A (human) (UniProt Q16552). As to the kind of experiment: co-IP; HeLa cells (wild-type; CMTM4−/− beside them) stimulated with SF-IL-17A (500 ng/ml, 15 min) or left unstimulated with SF-IL-17A added post lysis; Flag IP, immunoblot; only the target purified. Background: Immunoblotting shows a protein as a band on a membrane.
In assay [4] the target is T2, SF-IL-17RC (murine IL-17RC with C-terminal 2xStrep-3xFlag tag), in ST2 cells (mouse) (UniProt Q8K4C2).
T2 sequence (chain, N-glycosylated (100 kDa and 150 kDa forms)): T1 sequence
As to the kind of experiment: co-IP; Flag IP from lysates of Cmtm4−/− ST2 cells transduced with Myc-tagged members of the CMTM family (CMTM1–8) together with SF-IL-17RC, immunoblot.

Assay [5] addresses T2, SF-IL-17RC (murine IL-17RC with C-terminal 2xStrep-3xFlag tag), in ST2 cells (mouse). Kind of assay: co-IP; Flag IP from lysates of ST2 cells retrovirally transduced with SF-IL-17RC together with Myc-tagged CMTM4, CMTM6 or chimeric proteins, immunoblot.

As for “Myc-tagged CMTM4 in Drosophila S2 cells (from UniProt Q8CJ61 1-208)”, the results for the binding entry in assay [1] and in assay [2] were “binds” and “no binding”, respectively.

As for “ACT1 (endogenous, human HeLa cells) (from UniProt O43734 1-574)”, the binding result in assay [3] was “binds”.

As for “Myc-tagged CMTM4 in ST2 cells (from UniProt Q8CJ61 1-208)”, the binding entry in assay [4] and in assay [5] was “binds” in each case.

The values are drawn from publication PMC9663306.
